In PubChem BioAssay AID493208 (National Center for Advancing Translational Sciences (NCATS), 2011):
Among all 44,000 compounds or so, about 340 (0.77%) were called active. About 5% were inconclusive and are not listed. Calls come from the whole dose curve; as a rule, active = well fitted inhibition curve with a large enough effect; inconclusive = small, poorly fitted or top-dose-only effect; inactive = flat fitted curve, though single readings scatter. The list shows a part of the results.

Assay: Acumen qHTS Assay for Inhibitors of the mTORC1 Signaling Pathway in MEF (Tsc2-/-, p53-/-) Cells: Sytravon;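 note: plate controls were DMSO for no effect and rapamycin for full effect; nearly all actives have a fitted effect of over 50% in size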
Details: phospho-rpS6 immunofluorescence/PI, 24 h; series mostly up to 38.3 µM; activity change, negative = inhibition: at the top concentration
Procedure, shortened: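 Compounds act on Tsc2-/-, p53-/- fibroblasts carrying an empty vector for 24 h before fixation and dual staining for phospho-S6 and DNA (propidium iodide). Values are percentages of cells above a rapamycin-defined pS6/PI threshold.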

Activity change, negative = inhibition, inactive:
Cc1nn(-c2ccc(N3CCOCC3)nn2)c(C)c1CCC(=O)Nc1ccc(F)cc1F -9.26%
COc1ccc(NC(=O)C2CCCN(S(=O)(=O)c3c(C)[nH]c(=O)[nH]c3=O)C2)cc1Cl (centres undefined) -7.57%
Cc1cc(C)cc(OCCSc2nc(-c3cccs3)nc3cc(=O)[nH]n23)c1 7.81%
CCc1cc2c(cc3c(=O)n(CC(=O)NCCc4ccccc4)ncn32)s1 -0.3%
O=C(Nc1ccc(Cl)c(C(F)(F)F)c1)C(Cc1ccccc1)NS(=O)(=O)c1cccc2nsnc12 (centres undefined) 3.49%
Cc1ccc(C)c(NC(=O)c2ccc3c(c2)CCN3S(=O)(=O)c2ccccc2)c1 1.83%
COc1ccc2oc(=O)c(-c3nc(-c4ccc(C)c(C)c4)cs3)cc2c1 -9.13%
CCC(Sc1nc2ncccc2o1)C(=O)Nc1cccc(C)c1 (centres undefined) -7.28%
CCc1ccc(C2c3c(-c4ccccc4)n[nH]c3C(=O)N2c2ccc(C(=O)O)cc2)cc1 (centres undefined) -19.4%
COc1cccc(-n2cc(C(=O)NCc3ccc(C)cc3)c3ccccc3c2=O)c1 -2.73%
O=C(CN1N=C(c2ccccc2)CCC1=O)NCc1ccc(F)cc1Cl 8.19%
CCCCOC(=O)c1ccc(Nc2nnc(-n3nc(C)cc3C)c3ccccc23)cc1 0%
Cc1nnc2c3ccccc3nc(Nc3cccc(O)c3)n12 -10.2%
COc1cc(C2C(C(=O)Nc3ccccc3)=C(C)Nc3nnnn32)cc(OC)c1OC (centres undefined) 7.41%
COc1ccc(-c2noc(CN(C(=O)c3cc(OC)c(OC)cc3OC)C(C)C)n2)cc1 2.38%
O=C(NC1CC(=O)N(c2ccc(Cl)cc2)C1)c1ccc(S(=O)(=O)N2CCOCC2)cc1 (centres undefined) -0.157%
CCOC(=O)c1ccc(NC(=O)c2nc(SCc3ccccc3F)ncc2Cl)cc1 -3.75%
COc1ccc(-c2noc(CSc3nc(N)cc(=O)[nH]3)n2)cc1OC -1.07%
Cc1ccc(Cl)cc1NC(=O)C1CCN(c2nc3ccccc3n3cccc23)CC1 5.2%
CCCn1c2ccccc2c2cnn(CC(=O)NCCc3ccc(C)cc3)c(=O)c21 -12.3%
CCOc1ccc2nc(N3CCCC(C(=O)NCc4ccccc4OC)C3)sc2c1 (centres undefined) -0.652%
Cc1ccc(/C=C/c2onc(C)c2S(=O)(=O)N2CCC(C(=O)Nc3cc(F)ccc3F)CC2)cc1 -10.9%
CCc1nn(CC(=O)NCCCOC)c(=O)c2cc3ccccc3n12 -6.08%
Cc1ccc(CN2CCCn3nc(C(=O)NCC(C)c4ccccc4)cc3C2=O)cc1 (centres undefined) -3.04%
COCCn1c(=O)[nH]c2cc(C(=O)Nc3cccc(C(C)=O)c3)ccc2c1=O -2.33%
Cc1cc(C)c2oc(C(=O)Nc3ccc(S(=O)(=O)Nc4nccc(C)n4)cc3)cc(=O)c2c1 0.73%
Cc1cc(C)cc(-n2ccn(Cc3ccc(F)cc3)c(=O)c2=O)c1 0.577%
CCOc1ccc(S(=O)(=O)NCCc2sc3nc(-c4ccc(C)cc4)nn3c2C)cc1 -1.18%
CCCn1c(CCC(=O)Nc2ccccc2OC)nc2cccnc21 -15.3%
COc1ccc2oc(-c3cccc(NC(=O)c4sc5c([N+](=O)[O-])cccc5c4Cl)c3)nc2c1 4.17%
Cc1cccc(C)c1Nc1c(-c2ccc(O)cc2)nc2sccn12 -29.9%
O=c1oc2ccccc2cc1-c1cn2cc(Cc3ccc(Br)cc3)sc2n1 -13.4%
O=c1c2sc3ccccc3c2n(Cc2cccc(C(F)(F)F)c2)c(=O)n1Cc1ccc(F)cc1 -4.62%
COc1ccc(NC(=O)CC2C(=O)N(c3cccc(OC)c3)C(=O)N2Cc2ccc3c(c2)OCO3)cc1 (centres undefined) 0.622%
Cc1ccc(-c2cn(-c3ccc(Cl)cc3)c(S(=O)(=O)CC(=O)Nc3ccccc3)n2)cc1 -20.7%
COc1ccc(S(=O)(=O)c2nnn(-c3ccc(C)c(Cl)c3)c2C)cc1 0.15%
Cc1cc(C)cc(NC(=O)C2CCN(S(=O)(=O)c3cccc(-c4noc(C)n4)c3)CC2)c1 -6.77%
Fc1ccc(Br)cc1C1C=C(c2ccc(Br)cc2)Nc2nnnn21 (centres undefined) -10.5%
Cc1ccc(CNC(=O)CCCN2C(=O)COc3ccc(C)cc32)cc1 9.79%
O=C(CC1N=C2c3ccccc3N=C(SCC(=O)Nc3ccccc3F)N2C1=O)NCc1cccs1 (centres undefined) -1.17%
Cc1cccc(NC(=O)C(=O)NCCc2csc(-c3ccc(C(F)(F)F)cc3)n2)c1C -8.37%
Cc1ccc(NC(=O)c2c(NC(=O)c3ccccc3)sc3c2CCC3)cc1 -3.36%
Cc1ccc2sc(N(Cc3cccnc3)C(=O)C3COc4ccccc4O3)nc2c1C (centres undefined) 1.24%
CC1CCc2c(sc(NC(=O)c3cc(-c4ccc(F)cc4)on3)c2C(N)=O)C1 (centres undefined) 1.41%
CCc1ccc(CN(C(=O)c2cc(=O)c3ccc(C)cc3o2)C2CCS(=O)(=O)C2)cc1 (centres undefined) -8.62%
CC(C)Cn1c(=O)c2sccc2n2c(CCCC(=O)NC3CCCCC3)nnc12 0.316%
COc1cccc(CNC(=O)CCCn2nc(C)c3c(C)n(-c4ccc(C)cc4)nc3c2=O)c1OC -8.1%
COc1ccc(CNC(=O)Cn2nc(C)c3c(C)n(-c4ccccc4)nc3c2=O)cc1OC 0.277%
CCc1ccc(C2CC(=O)Oc3c2c(=O)n(C)c2ccccc32)cc1 (centres undefined) -4.88%
Cc1cccc(-c2nc(C(N)=O)c3c(n2)n(-c2ccc4c(c2)OCO4)c(=O)n3C)c1 -12.3%
CCCCc1ccc(NC(=O)C2(C)Cc3ccccc3C(=O)O2)cc1 (centres undefined) -16.7%
Cn1c(=O)c2nc(SCC(=O)Nc3ccc(Cl)c(Cl)c3)n(C)c2n(C)c1=O -3.79%
Cc1cc(C)cc(NC(=O)Cn2cc(C(=O)c3ccccc3)c(=O)c3ccc(C)nc32)c1 3.6%
Cc1ccc(CN(Cc2ccco2)c2cnc(S(C)(=O)=O)nc2C(=O)Nc2ccccc2Br)o1 -0.348%
CCOC(=O)CSc1nc2ccc(NC(=O)COc3ccccc3C)cc2s1 -4.81%
Cc1ccc(-n2c3nc(=O)[nH]c(=O)c-3cc3c(C)nn(-c4ccccc4)c32)c(C)c1 0.887%
Cc1ccc(Cl)cc1NC(=O)CCS(=O)(=O)c1ccc2c(c1)n(C)c(=O)c(=O)n2C -5.15%
O=C(Nc1ccc(Cl)cc1)c1cc2c(-c3ccccc3)nn(-c3ccccc3)c2s1 -2.76%
Cc1nn(CC(=O)N2CCCCC2)c(=O)c2cc3occc3n12 1.59%
CC(NC(=O)C1CCN(S(=O)(=O)c2ccc3nc4c(c(C(=O)O)c3c2)CCCC4)CC1)c1ccccc1 (centres undefined) 0.266%
CC(C)Cn1cc(NC(=O)NCc2ccccc2Cl)c2ccccc2c1=O 5.29%
O=C(CSc1oc(-c2ccccc2)nc1S(=O)(=O)c1ccccc1)c1ccccc1 -17.4%
Cc1ccc(NC(=O)CCS(=O)(=O)c2cc(Br)cc3c2N(C(=O)C2CC2)CC3)cc1 -4%
COc1cccc(NC(=O)c2ccc3nc(Cc4ccccc4)oc3c2)c1 3.78%
COc1ccc(-c2cc(C(=O)Nc3sc4c(c3C#N)CCCC4)no2)cc1OC -12.5%
CCc1ccc(-n2c(SCc3cccc(F)c3)nc3[nH]ncc3c2=O)cc1 -5.88%
Cc1nn(-c2ccccc2)c(OC(=O)C(C)(C)C)c1Sc1ccccc1 13.6%
Cc1ccc2nc(NCCc3ccccc3)c3nncn3c2c1 -1.99%
Cc1ccc(Cn2c(SCc3ccc(C(=O)NC4CCCC4)cc3)nc3ccncc32)cc1 -1.35%
CCn1c(=O)cc(OCC(=O)Nc2ccc(C)c(F)c2)c2ccccc21 -6.05%
Cc1ccc(-n2c(-c3ccco3)nc3c(cnn3-c3ccccc3C)c2=O)cc1 -12.6%
COC(=O)c1cc(NS(=O)(=O)c2cc(Br)cc3c2N(C(C)=O)CC3)cc(C(=O)OC)c1 0.438%
CCCC(=O)c1ccc(OC(=O)c2c(-c3ccccc3Cl)noc2C)cc1 0%
Cc1nnc(NC(=O)C(=O)c2cc(C)n(-c3ccc(C)c(C)c3)c2C)s1 0.778%
Cc1ccc(C(=O)Nc2ccc3oc(-c4ccncc4)nc3c2)c(Cl)c1 1.7%
Cc1cccc(-n2c(=O)c3c(c4cc(C)ccc4n3C)n(CC(=O)Nc3ccc(C)cc3C)c2=O)c1 -5.38%
COc1ccc(-c2cn3c(n2)sc2cc(C(=O)Nc4cc(OC)cc(OC)c4)ccc23)cc1 -0.588%
CCc1ccc(-n2c(=O)c3cccnc3n2CC(=O)Nc2ccccc2C(F)(F)F)cc1 -16.1%
N#Cc1c(NC(=O)CS(=O)(=O)c2ccc(Cl)cc2)sc2c1CCCCC2 -0.024%
COc1ccc(-c2ccc(CCC(=O)O)n2CC(=O)Nc2cccc(C(F)(F)F)c2)cc1 -2.7%
COc1ccc(N2CCN(C(=O)c3ccc4c(Cl)c5c(nc4c3)CCCC5)CC2)cc1 -15.5%
CCOC(=O)c1c(NC(C)=O)c2c3c(sc2n1Cc1nc(-c2cccc(C)c2)oc1C)CCCC3 -11%
OCCCc1nc2n(n1)C(c1cccc(Cl)c1)C=C(c1ccccc1)N2 (centres undefined) 3.26%
COc1ccccc1-c1nc(CNC(=O)Nc2ccccc2)c(C)o1 -3.38%
COc1ccccc1C(=O)NC1=NC(c2ccc(Br)cc2)CC(=O)N1 (centres undefined) -17.5%
COc1ccc(CN2C(=O)N(c3ccc(C)cc3)C(=O)C2CC(=O)Nc2ccccc2)cc1OC (centres undefined) -9.89%
O=[N+]([O-])c1cc(-c2nc(-c3ccccc3)no2)ccc1NC1CCCC1 -18.5%
CCCc1cc(C(=O)Nc2c(C)nn(Cc3ccc(Cl)c(Cl)c3)c2C)no1 -3.54%
CCc1ccc(-c2nc(CN3CCCC(C(=O)NCc4ccc(C)cc4)C3)c(C)o2)cc1 (centres undefined) 0.0715%
CCn1cc2nc(SCC(=O)Nc3ccccc3F)n(Cc3ccc(C)cc3)c(=O)c2n1 -1.69%
COc1ccc(-c2cc3nc(C)c(CCC(=O)Nc4cccc(C(F)(F)F)c4)c(C)n3n2)c(OC)c1 -10.5%
Cc1ccc(CNC(=O)Nc2cn(CC(C)C)c(=O)c3ccccc23)cc1 5.22%
Cc1ccnc(NC(=O)c2c(C)oc3ncn(CC(C)C)c(=O)c23)c1 2.98%
CN(C(=O)Cn1cc(S(=O)(=O)N2CCN(c3ccccc3F)CC2)c2ccccc2c1=O)c1ccc(Cl)cc1 3.85%
